# Measurements reported in paper PMC4336329 (PLoS ONE, 2015).
# Screen size: about 310,000 compounds; about 2,200 (0.71%) showed an effect of 50% or more. Effects have a minus sign here. This is one part of the list.
# Molecular target: human ether-à-go-go-related gene (hERG) potassium channel (human, UniProt Q12809)
# Assay: primary screen, population patch clamp on CHO cells stably expressing hERG
# Sequence of human ether-à-go-go-related gene (hERG) potassium channel (Q12809 whole entry, looked up): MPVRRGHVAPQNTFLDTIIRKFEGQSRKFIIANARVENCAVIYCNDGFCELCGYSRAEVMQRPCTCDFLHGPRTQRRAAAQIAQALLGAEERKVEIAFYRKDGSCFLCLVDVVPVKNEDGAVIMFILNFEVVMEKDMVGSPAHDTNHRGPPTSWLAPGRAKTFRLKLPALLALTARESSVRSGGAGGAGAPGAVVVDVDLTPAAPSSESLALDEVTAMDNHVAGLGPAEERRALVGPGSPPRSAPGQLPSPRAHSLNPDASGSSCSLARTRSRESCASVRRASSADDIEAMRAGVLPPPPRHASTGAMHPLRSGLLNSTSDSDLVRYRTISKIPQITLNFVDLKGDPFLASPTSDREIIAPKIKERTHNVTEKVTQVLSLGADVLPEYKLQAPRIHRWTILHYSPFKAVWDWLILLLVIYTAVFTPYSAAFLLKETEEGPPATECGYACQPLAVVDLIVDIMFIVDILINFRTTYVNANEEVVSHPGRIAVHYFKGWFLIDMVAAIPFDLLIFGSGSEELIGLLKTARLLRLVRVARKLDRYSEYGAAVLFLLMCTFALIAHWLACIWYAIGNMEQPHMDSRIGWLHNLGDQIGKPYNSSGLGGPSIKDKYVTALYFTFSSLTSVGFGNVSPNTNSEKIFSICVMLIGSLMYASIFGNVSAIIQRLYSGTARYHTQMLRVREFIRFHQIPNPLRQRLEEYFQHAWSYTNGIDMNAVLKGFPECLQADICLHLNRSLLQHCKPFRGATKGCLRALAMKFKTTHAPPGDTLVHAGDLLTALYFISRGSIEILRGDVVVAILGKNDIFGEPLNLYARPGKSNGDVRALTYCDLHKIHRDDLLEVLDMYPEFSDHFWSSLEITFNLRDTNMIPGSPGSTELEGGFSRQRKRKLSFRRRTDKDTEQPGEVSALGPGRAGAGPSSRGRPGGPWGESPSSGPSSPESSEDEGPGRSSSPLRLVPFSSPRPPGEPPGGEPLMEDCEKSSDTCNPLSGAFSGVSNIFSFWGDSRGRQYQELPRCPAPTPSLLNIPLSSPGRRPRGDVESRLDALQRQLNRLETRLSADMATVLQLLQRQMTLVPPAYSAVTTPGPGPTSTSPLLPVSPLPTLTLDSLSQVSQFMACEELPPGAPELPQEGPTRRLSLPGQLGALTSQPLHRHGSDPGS
row,SMILES,"hERG current change (%, negative = inhibition) at 1uM"
1,O=C(COC(=O)C1CC(O)CN1S(=O)(=O)c1ccccc1[N+](=O)[O-])c1ccc[nH]1 (stereo not shown),10.8%
2,O=c1c(-c2ccccc2)c(O)nc2ccccn12,5.16%
3,O=C(NCCCN1CCN(c2cccc(Cl)c2)CC1)C1(S(=O)(=O)c2ccc(Cl)cc2)CC1,-29.3%
4,NC(=O)c1c(-c2ccccc2)oc2ccc(O)cc12,0.84%
5,O=C(N/N=C/c1cccs1)c1cccs1,15.7%
6,COc1cc2c(cc1NC(=O)COc1ccc3ccccc3c1)oc1ccccc12,5.56%
7,CC(C)c1cc(N=NC(N)=O)cc(C(C)C)c1O,6.77%
8,O=C(c1ccccc1)n1ccn(-c2ccccc2)c1=S,-10.3%
9,CC1CCc2cc(F)ccc2N1C(=O)CSc1nnc(-c2cccs2)n1C (stereo not shown),0.707%
10,Cc1cc(C)nc(NS(=O)(=O)c2ccc(N3C(=O)c4ccccc4C3=O)cc2)n1,-1.19%
11,N/C(=N\OC(=O)C1CCCCC1)c1ccccn1,14.3%
12,NC(=O)COC(=O)CC(c1ccccc1)c1ccccc1,8.9%
13,Cc1c([N+](=O)[O-])nnn1-c1cc(Cl)cc(Cl)c1,8.12%
14,Cn1ccc(C(=O)Nc2sc3c(c2C#N)CCC3)n1,19%
15,Cc1ccc(S(=O)(=O)N(C)CC(=O)OCC(=O)NC(c2ccccc2)c2ccccc2)cc1,11.8%
16,C/C(=N\N1C(=O)c2ccccc2NC1c1ccccc1)c1ccccc1O (stereo not shown),1.5%
17,CC(C)c1ccc(/C=C(/C#N)c2nnc(NC(=O)c3ccccc3)s2)cc1,10.8%
18,NS(=O)(=O)c1ccc(CCNC(=O)COC(=O)Cc2ccc([N+](=O)[O-])cc2)cc1,-8.53%
19,CCCN(CC#CCOc1ccc(OC)cc1)CCC.O=C(O)C(=O)O,1.21%
20,Cn1ccnc1C(=O)c1ccc(NN)c([N+](=O)[O-])c1,7.44%
21,O=C(CC1CCCC1)Nc1nnc(C2CC2)s1,11.5%
22,COC(=O)[C@H](Cc1ccccc1)NC(=O)N1CCC(C)CC1,8.01%

row,SMILES,"hERG current change (%, negative = inhibition) at 1uM"
1,COC(=O)c1sccc1NC(=O)c1ccc(C)s1,12.8%
2,CC(C)[C@H](NC(N)=O)C(=O)Nc1cccc([N+](=O)[O-])c1,15.2%
3,O=C(O)c1cccc(NS(=O)(=O)c2ccc(C3CCCCC3)cc2)c1,11.7%
4,O=C(CS(=O)(=O)c1ccccc1)Nc1ccc(S(=O)(=O)Nc2ccccn2)cc1,1.96%
5,O=C1NC[C@@H](Cc2ccc(O)cc2)N(CCc2cccc(F)c2)C1=O,15.3%
6,CC1CCN(c2cc(N(C)CCO)c([N+](=O)[O-])c3nonc23)CC1,10.2%
7,COc1cccc(NC(=O)Cn2c(=O)oc3ccccc32)c1,10.9%
8,C=CCOC(=O)C1=C(C)NC(SCC(=O)OCC)=C(C#N)C1c1ccc(C)cc1 (stereo not shown),16.7%
9,COC(=O)c1c(NC(=O)Cc2ccccc2)sc2c1CC(C)(C)NC2(C)C,5.93%
10,OCC1(CCc2ccccc2)CCN(Cc2ccccc2Cl)CC1,-54.6%
11,Cc1ccc(NC(=O)CN(C)C(=O)COC(=O)CNS(=O)(=O)c2ccc(F)c(F)c2F)cc1,12.5%
12,Cc1cc(C)cc(Oc2coc3cc(O)ccc3c2=O)c1,7.9%
13,C/C(CC(=O)Nc1ccc(OCc2ccccc2)cc1)=N\NC(=O)C(=O)Nc1cccc(C)c1,5.47%
14,O=C1CCc2cc(S(=O)(=O)NCCC(=O)N3CCN(c4cccc(Cl)c4)CC3)ccc2N1,-17.5%
15,C=CCn1c(SCc2ccc(Cl)c(Cl)c2)nnc1C(CO)NC(=O)c1ccc(OC)cc1 (stereo not shown),4.01%
16,Cc1cccc(N2CCN(C(=O)C3(S(=O)(=O)c4ccc(Cl)cc4)CC3)CC2)c1C,-1.19%
17,COc1ccc(N2CCN(C(=S)NCCc3ccccc3)CC2)cc1,6.06%
18,Cc1ccc2[nH]c3c(=S)nc[nH]c3c2c1,14.5%
19,S=C(NCCN1CCOCC1)Nc1ccc(Cl)c(Cl)c1,6.71%
20,COc1ccc(N(C(=O)c2snc(C(N)=O)c2N)C(C(=O)NC2CCCC2)c2cccs2)c(OC)c1 (stereo not shown),4.77%
21,O=C(CN1C(=O)/C(=C/c2ccco2)SC1=S)NC1CCS(=O)(=O)C1 (stereo not shown),13.9%
22,COCCNC(=O)c1cccc(Nc2nc(-c3ccccc3)c3cc(Cl)ccc3n2)c1,13.9%

row,SMILES,"hERG current change (%, negative = inhibition) at 1uM"
1,CCOC(=O)c1cn(CC)c2ccc(S(=O)(=O)N3CC(C)CC(C)C3)cc2c1=O (stereo not shown),-1.29%
2,Cc1cc(Cl)ccc1OCCCC(=O)Nc1cccnc1,6.84%
3,Cc1ccc(OCCn2cccc2/C=C2/C(=O)NC(=O)N(Cc3ccco3)C2=O)cc1,10.8%
4,CCc1nnc(NC(=O)CCc2ccc(C)o2)s1,5.48%
5,CC(=O)Nc1ccc2nc(-c3cccnc3)[nH]c2c1,16.8%
6,O=C(CNc1ccccc1)NN=C1CCCC1,13.4%
7,O=S(=O)(Nc1ccc(-c2ccc3nncn3n2)cc1)c1ccccc1Cl,7.16%
8,Cc1ccc(-c2ocnc2C(=O)Nc2nc(C)cs2)cc1,12.3%
9,c1ccc(CCn2c(C3CC3)nc3ccccc32)cc1,-11.4%
10,O=C(NCC1CCCO1)NC12CC3CC(CC(C3)C1)C2 (stereo not shown),12.6%
11,COc1ccc(C(=O)Nc2ncc(C)s2)cc1S(=O)(=O)N1CCOCC1,-6.86%
12,COc1ccc(N2CC(C(=O)Nc3ccccc3C(=O)NCc3ccco3)CC2=O)cc1 (stereo not shown),-17.8%
13,CCCC(=O)Nc1c2c(nn1-c1cccc(Cl)c1)CS(=O)(=O)C2,-1.85%
14,CC(C)(CNC(=O)CNC(=O)C1CCCCC1)N1CCOCC1,1.39%
15,CN(Cc1ccccc1)S(=O)(=O)c1ccc(Cl)c(C(=O)NCc2cccnc2)c1,6%
16,COc1ccccc1-n1cnnc1SC(C)C(=O)NCC1CCCO1 (stereo not shown),6.96%
17,Cc1ccc(-c2nc(-c3ccccn3)no2)cc1Cl,1.49%
18,O=C(CNC(=O)c1cccc(OC(F)F)c1)Nc1ccc(Cl)cc1,8.48%
19,O=C1NCN(c2ccccc2)C12CCN(c1nnnn1-c1ccccc1)CC2,0.0267%
20,COc1ccc(-n2c(SCC(=O)N3CCN(c4ccccc4)CC3)nc3c(c2=O)SCC3)cc1,-6.97%
21,COc1ccc(C(=O)NCc2ccccc2CN2CCCC2)cc1S(=O)(=O)Nc1ccc(C)cc1,-31.9%
22,O=C(c1ccccc1)N1CC(COc2ccccc2)OC(c2cccnc2)O1 (stereo not shown),3.75%

row,SMILES,"hERG current change (%, negative = inhibition) at 1uM"
1,Cc1ccc(C(=O)Nc2cccc(S(=O)(=O)N3CCCC3)c2)o1,12.1%
2,Cn1c(=O)[nH]c(=O)c2c1nc(SCC(N)=O)n2Cc1cccc(Br)c1,4.47%
3,CN(C)CCCN(C(=O)c1ccc2c(c1)OCCO2)c1nc2ccc(Cl)cc2s1.Cl,-3.81%
4,CS(=O)c1ccccc1O (stereo not shown),8%
5,O=C(O)CC1C(=O)NCCN1Cc1cccs1 (stereo not shown),0.0703%
6,O=C(CSC1=NNC(c2ccccn2)S1)Nc1ccc(C(F)(F)F)cc1 (stereo not shown),13.4%
7,O=C(N[C@@H](Cc1ccccc1)C(=O)N1CCN(S(=O)(=O)c2cccc(F)c2)CC1)c1ccco1,6.1%
8,CO/N=C(/CN1CCCCC1)c1ccc(Cl)cc1,20.3%
9,CCOc1nc2ccccc2nc1NS(=O)(=O)c1ccc(Cl)cc1,-2.83%
10,Cc1ccc(C(=O)NCc2ccc(Cl)cc2)cc1S(=O)(=O)N1CCCCC1,4.63%
11,COc1ccc(Cl)cc1NC(=O)CN(C)C(=O)c1cc2ccccc2cc1O,14.5%
12,CC(=O)Cn1c(CN2CCCC2)nc2ccccc2c1=O,14.6%
13,O=C(CC(NS(=O)(=O)c1ccc(Cl)cc1)c1ccco1)NC1CCCC1 (stereo not shown),1.65%
14,O=S(=O)(c1cc(O)ccc1O)c1cccc2c(S(=O)(=O)c3cc(O)ccc3O)cccc12,8.99%
15,O=C(CN1C(=O)COc2ccccc21)NCCCN1CCCC1,19.5%
16,CC1CC2=C(NC(=S)NC2c2ccccc2F)/C(=C/c2ccccc2F)C1 (stereo not shown),20.5%
17,Cc1ncsc1CCC(=O)N1CCCC(Nc2ccc(C(C)C)cc2)C1 (stereo not shown),5.15%
18,COC(=O)CCC(=O)OC1(C)C(=O)C2=CN(CCc3ccccn3)C(c3ccc(OC)cc3)=CC2=C(Br)C1=O (stereo not shown),-3.32%
19,Cc1cc(=O)[nH]c(Nc2ccc(N(C)C)cc2)n1,17.7%
20,Cc1ccc(NCc2nc3ccccc3n2C)c(C)c1,10.2%
21,COc1cc(NC(=O)COC(=O)c2ccccc2SCC(=O)N2CCCC2)cc(OC)c1,-14.3%
22,CN1CCN(c2ccc(CNC(=O)c3cc4ccccc4o3)cc2)CC1,3.03%
